Results taken from publication PMC6356061, “Clustering of Tau fibrils impairs the synaptic composition of α3‐Na^+/K^+‐ATPase and AMPA receptors” (The EMBO Journal, 2019).

Assays:
[1] = target: the molecule itself; experiment: AUC; sedimentation velocity of fragmented Fib-Tau, 40 uM equivalent monomeric Tau in PBS, 16,364 x g, 20°C, absorbance at 280 nm, ls-g*(s) in Sedfit; fibrils assembled with heparin; size of the fibril particle
[2] = target: the molecule itself; experiment: quantitative transmission electron microscopy; Tau fibrils spun onto carbon-coated grids, negatively stained; length of 838 fibrils and average diameter measured; number of monomers calculated from the fibril volume
[3] = target: T1, Na+/K+-ATPase (NKA) α3 subunit (mouse (endogenous in primary cortical …, UniProt Q6PIC6)); experiment: co-IP; extracts of neurons exposed 10 min to 14.4 nM biotinylated Fib-Tau; immunoprecipitation with anti-α3-NKA, anti-GluA2 or anti-GluN1 and protein G magnetic beads, 4°C; Fib-Tau detected on slot blot with streptavidin-HRP; controls with pre-immune goat or rabbit IgG; settings: one partner purified
T1 construct: sodium/potassium-transporting ATPase subunit alpha-3, mouse, endogenous in cortical neuron cultures; Identified by MS search against SwissProt Rodentia; also called α3-NKA; source: endogenous, mouse primary cortical neurons (exposed live to the fibrils, then lysed)

[4] = target: T2, AMPA receptor GluA2 subunit (mouse (endogenous in primary cortical …, UniProt P23819)); experiment: as above; settings: one partner purified
T2 construct: glutamate receptor 2 (AMPA receptor subunit GluA2), mouse, endogenous in cortical neuron cultures; Identified by MS search against SwissProt Rodentia; also called GluA2-AMPA receptor; source: endogenous, mouse primary cortical neurons (exposed live to the fibrils, then lysed)
T2 sequence (P23819 25-883): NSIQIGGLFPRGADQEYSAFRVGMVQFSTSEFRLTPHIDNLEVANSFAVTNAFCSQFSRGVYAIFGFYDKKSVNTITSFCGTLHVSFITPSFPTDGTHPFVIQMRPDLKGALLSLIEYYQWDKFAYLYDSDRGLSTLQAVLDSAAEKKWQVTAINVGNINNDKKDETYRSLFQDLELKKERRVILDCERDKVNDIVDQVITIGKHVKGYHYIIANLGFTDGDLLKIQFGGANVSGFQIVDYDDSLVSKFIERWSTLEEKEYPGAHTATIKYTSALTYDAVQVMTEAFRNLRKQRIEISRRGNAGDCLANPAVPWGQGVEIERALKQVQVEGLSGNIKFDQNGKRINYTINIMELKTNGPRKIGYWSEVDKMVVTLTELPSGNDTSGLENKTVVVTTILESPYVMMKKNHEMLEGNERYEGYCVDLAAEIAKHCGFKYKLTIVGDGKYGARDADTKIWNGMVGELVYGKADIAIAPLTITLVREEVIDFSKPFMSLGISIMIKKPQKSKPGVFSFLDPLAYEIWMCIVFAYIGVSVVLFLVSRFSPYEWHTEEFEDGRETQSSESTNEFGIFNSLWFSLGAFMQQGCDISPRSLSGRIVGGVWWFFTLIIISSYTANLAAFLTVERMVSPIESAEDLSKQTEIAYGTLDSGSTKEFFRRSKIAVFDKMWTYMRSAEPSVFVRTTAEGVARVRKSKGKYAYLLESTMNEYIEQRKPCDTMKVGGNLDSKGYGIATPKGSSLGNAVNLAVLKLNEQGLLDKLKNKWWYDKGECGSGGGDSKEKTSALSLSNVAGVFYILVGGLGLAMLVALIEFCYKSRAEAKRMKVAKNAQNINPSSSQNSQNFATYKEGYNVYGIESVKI

| fold enrichment in Tau band intensity over pre-immune IgG control [3] | fold enrichment in Tau band intensity over pre-immune IgG control [4] | Binder | stoichiometry N [1] | stoichiometry N [2] |
| --- | --- | --- | --- | --- |
|  |  | Fragmented fibrillar Tau-1N3R (Fib-Tau 1N3R) as used to determine the particle concentration (natural protein, microtubule-associated protein Tau, human, wild-type, isoform 1N3R, 381 amino acid residues; also called Tau fibrils; source: recombinant, expressed and purified as described previously (Tardivel et al, 2016); fibrillated at 40 uM with 10 uM heparin, fragmented by sonication) not shown | ~137 monomers | 136 monomers |
| 2.4 fold | 2.3 fold | Biotin-labelled fibrillar Tau-1N3R (Fib-Tau-1N3R) (natural protein, biotin (EZ-Link-Sulfo-NHS-S-S-Biotin, 10 molar equivalents), 3 to 4 biotin molecules on average, microtubule-associated protein Tau, human, wild-type, isoform 1N3R, 381 amino acid residues; Fibrillar assembly; In the imaging experiments (functional rows) the fibrils carried ATTO dyes or no label instead of biotin; also called biotin-Fib-Tau; Tau-1N3R fibrils; source: recombinant, expressed and purified as described previously (Tardivel et al, 2016); fibrillated at 40 uM with 10 uM heparin, …) not shown |  |  |
